Assay results taken from PubChem BioAssay AID504832 (National Center for Advancing Translational Sciences (NCATS), 2011).
In all, about 310,000 compounds went through this assay and about 18,000 (5.8%) were called active. Inconclusive results, whose numbers are uncertain, are shown with a selection of clear calls. Calls follow the shape of the dose curve; as a rule, active = well fitted inhibition curve with a large enough effect; inconclusive = small, poorly fitted or top-dose-only effect, or another doubt; inactive = no such curve, though single readings can be large or run the other way. No potency is given beside an inconclusive call; the fits are too rough.

Test: Primary qHTS for delayed death inhibitors of the malarial parasite plastid, 48 hour incubation
Conditions: P. falciparum luciferase growth in erythrocytes; series mostly up to 28.7 µM
Procedure, shortened: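 Luminescence readout; reporter = integrated firefly luciferase in P. falciparum. RBC culture at 2% hematocrit, 0.1% parasitemia final, 37 C/5% CO2; decreased signal taken as growth inhibition.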
Potency is read from the fitted curve at half-maximal effect; tags tell the direction and shape of the fitted curve.

Compound | Potency
O=C(CCc1nnc(-c2ccc(-c3ccccc3)cc2)o1)N1CCCCC1 | inconclusive [inhibitor, single point]
N#Cc1c(Cl)nc(Cl)c2c1CCN(Cc1ccccc1)C2 | inactive
O=C(CSc1ncnc2sc(-c3ccccc3)cc12)NC1CCS(=O)(=O)C1 (centres undefined) | inactive
Cc1ccc2nc(NC(=O)CSc3nc(=O)n(CCN(C)C)c4c3CCCC4)sc2c1 | inconclusive [inhibitor, single point]
CC(=O)Nc1ccc(S(=O)(=O)N2CCN(c3cc(C)nc4ccccc34)CC2)cc1 | inconclusive [inhibitor, single point]
O=C(NCc1cccnc1)/C(=C\c1ccc(-c2ccc(Br)cc2)o1)S(=O)(=O)c1ccccc1 | inconclusive [inhibitor, single point]
CCC(=O)[C@@]1(C)[C@H](C)C[C@@H]2[C@@H]3CCC4=CC(=O)C=C[C@@]4(C)[C@H]3[C@H](O)C[C@]21C | active: 2.56 µM
COc1ccccc1N(CC(=O)Nc1ccccc1C(=O)NC(C)C)S(C)(=O)=O | inconclusive [inhibitor, partial curve, poor fit]
CC(C)Cc1ccc(C(C)C(=O)Nc2cccnc2)cc1 (centres undefined) | inconclusive [inhibitor, single point]
CCOC(=O)c1ccccc1NC(=O)COC(=O)c1c(CC)noc1C | inactive
Cc1cccc(NC(=O)c2ccc(OCc3c(C)noc3C)cc2)n1 | inconclusive [inhibitor, single point]
CCCNC(=O)CNC(=S)N(Cc1ccccc1F)C1CCCCC1 | inconclusive [inhibitor, single point]
Cc1cc(C(=O)Nc2ccc(C(=O)O)cc2)c(C)o1 | inactive
COc1ccc(C(=O)Nc2ccc(Cl)cn2)cc1Cl | inactive
CC(C)(C)OC(=O)N1CCC(c2c(C(=O)N3CCN(C4CCCCC4)CC3)cnn2-c2ccc(F)cc2)CC1 | inconclusive [inhibitor, partial curve]
COC(=O)c1sc2nc3c(c(-c4cccs4)c2c1N)CCCC3 | inactive
c1csc(-c2nnc(Cc3cccc4ccccc34)o2)c1 | inconclusive [inhibitor, single point]
CC(CCc1ccccc1)NC(=O)CCNS(=O)(=O)c1ccccc1C(F)(F)F (centres undefined) | inconclusive [inhibitor, single point]
C=CCSc1nnc(NC(=O)C23CC4CC(CC(NC(C)=O)(C4)C2)C3)s1 | inconclusive [inhibitor, single point]
Cc1cc(-c2ccc(S(=O)(=O)N3CCN(c4cccc(C(F)(F)F)c4)CC3)s2)on1 | inactive
Cc1cn2c(N)c(/C=C3\C=Nc4ccccc43)c(=O)nc2s1 | inconclusive [inhibitor, partial curve, poor fit]
COc1ccc(C(CNC(=O)C(CCSC)NC(=O)c2ccccc2Cl)N2CCOCC2)cc1 (centres undefined) | inactive

Compound | Potency
CSc1nc2ncc(-c3ccsc3)c(N)n2n1 | inactive
COCCCN(C(=S)Nc1cc(C)cc(C)c1)C(C)c1ccncc1 (centres undefined) | inconclusive [inhibitor, partial curve, poor fit]
O=c1c2ccccc2c(-c2ccccc2)nn1-c1cc(Cl)cc(Cl)c1 | inconclusive [inhibitor, full curve]
Cn1cccc1/C=N/N1CCN(Cc2ccccc2Cl)CC1 | inactive
O=[N+]([O-])c1cc(-c2nnc(Nc3ccccc3)c3ccccc23)ccc1N1CCOCC1 | inconclusive [inhibitor, single point]
CC(=O)c1ccc(NC(=O)C2CCCN2S(=O)(=O)c2ccc(C)cc2)cc1 (centres undefined) | inactive
CC1(C)CC(=O)C(C=NCCN2CCN(C(=O)Cc3ccc(F)cc3)CC2)=C(O)C1 | inactive
Nc1nc2ccccc2n1CCOc1ccc(F)cc1 | active: 8.28 µM
CN1C(=O)C(CC(=O)Nc2ccc(F)cc2)N(Cc2ccco2)C1=S (centres undefined) | inconclusive [inhibitor, single point]
CC(Cc1ccccc1)NCCC(c1ccccc1)c1ccccc1 (centres undefined) | active: 10.4 µM
CC(=O)c1ccc(OCC(=O)NCC2(N3CCCCC3)CCCCC2)cc1 | inconclusive [inhibitor, partial curve, poor fit]
O=C(CN1CCN(c2ccccn2)CC1)N1c2ccccc2Sc2ccc(C(F)(F)F)cc21 | active: 4.65 µM
COc1ccc(-n2c(=O)c(CCC(=O)N(C)Cc3cccs3)nc3ccccc32)cc1 | active: 13.1 µM
NS(=O)(=O)c1ccc(CCNC(=O)C(=O)c2c[nH]c3ccccc23)cc1 | inconclusive [inhibitor, partial curve, poor fit]
Cc1cc(C)c(S(=O)(=O)NCc2cn3c(C)csc3n2)cc1C | inconclusive [inhibitor, full curve, poor fit]
CCCCC#Cc1cncc(C(=O)N/N=C/c2cccc(OC)c2)c1 | inconclusive [inhibitor, partial curve, poor fit]
O=C(O)c1ccc(NS(=O)(=O)/C=C/c2ccccc2)cc1O | inconclusive [inhibitor, single point]
Cn1c(SCC(=O)Nc2cccc(NC(=O)c3cccs3)c2)nnc1-c1ccncc1 | inconclusive [inhibitor, single point]
COc1cccc(C2CC(c3cccs3)Nc3ncnn32)c1 (centres undefined) | inconclusive [inhibitor, single point]
CCOC(=O)N1CCN(S(=O)(=O)c2ccc(C(=O)N(CCN(CC)CC)c3nc4ccc(C)cc4s3)cc2)CC1 | inactive
Cc1ccccc1-c1cc(C(=O)NCc2ccco2)n(CC2CC(c3cccnc3)=NO2)n1 (centres undefined) | inconclusive [inhibitor, single point]
O=C1CSC(=Nc2ccccc2)N1Cc1ccccc1 | inconclusive [inhibitor, partial curve, poor fit]
